Test results taken from the supplement of paper PMC12632987.
In all, about 1,800 sequences were measured (“median log2 fold change of GCK-ALFA target abundance (FLAG IP / Myc IP barcode read proportion)”: median about 0.14, lowest 2% from about -0.84 on). The list shows a part of the results.

T1: TRAF2, Q12933
T1 chain: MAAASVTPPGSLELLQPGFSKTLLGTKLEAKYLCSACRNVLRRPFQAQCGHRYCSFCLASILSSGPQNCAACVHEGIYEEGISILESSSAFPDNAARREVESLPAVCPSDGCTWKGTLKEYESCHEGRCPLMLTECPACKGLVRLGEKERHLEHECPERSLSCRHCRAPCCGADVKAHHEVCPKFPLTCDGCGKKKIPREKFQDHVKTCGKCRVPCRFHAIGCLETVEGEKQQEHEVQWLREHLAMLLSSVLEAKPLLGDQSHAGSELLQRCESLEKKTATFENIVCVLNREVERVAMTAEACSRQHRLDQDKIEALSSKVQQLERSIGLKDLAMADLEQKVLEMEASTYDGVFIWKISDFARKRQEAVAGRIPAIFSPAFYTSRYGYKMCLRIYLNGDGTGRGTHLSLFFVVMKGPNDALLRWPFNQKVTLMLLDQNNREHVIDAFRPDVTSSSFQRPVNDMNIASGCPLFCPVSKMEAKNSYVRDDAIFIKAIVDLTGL

B1: traf2_out_20_3_2169 (protein)
chain: SELEEELKKELEKAIKTLKEAAKAADAETKARLDALIKRLKASEKLSPSDRLVAVSEIRREVLELAEEARRAGDEELAKLLEKAADYLGRAAQLLYKIIE
B2: traf2_out_16_104_1410 (protein)
chain: AAATQAAFDAIIAQLEAIADELGRLANEIYEKMKTASPEDRKKLSDALVEASEARRRALQAAEAARQARATGGDLAAAQATLAALTAEAARVKEKAKALF
B3: traf2_out_11_155_721 (protein)
chain: SAAREAQNQIVDHNLEIGDELLKEVNKIIEEVAKEDPEVAAKLKEVVEKYKKYSYTSAARAAIDLLREAGLEEEAERLEKALEEAQKKSSEFIQEVEAKL
B4: traf2_out_13_95_1050 (protein)
chain: SAETAKKIMEVADEMMDKALALLKKAQKEFADDPEATAVLTQALDLAEKKGISEAIHLLEEAQAANPEHAEQFAALIAELEALRREAGRKVAEILKEEKE
B5: traf2_out_17_178_1671 (protein)
chain: DKEEHRKKISELTDELIDLTERTGRELLALAEAEGRLSPEELAALRAALASGSANTLLAVARRLAPKLSSAAEAQALLDRFEAEYRELAKGIYEEYKKYE
B6: traf2_out_16_104_1420 (protein)
chain: SAADDAAFDALIAEAEAIAEELGRLANKLYKKLEKASPEEKKKLSDALVEASEARREARQLAEDLRARRAAGGDLAAARAALAALRKRAEEVKKKAEELF
B7: traf2_out_18_167_1869 (protein)
chain: SAELKKEREKLTDELVKYSTIRRHLLEILEALKESREKARALLEKAVAEHPDSEVLKEALEVFETKSDEEVRAFMESKAEELQKKANEYYKKLEELEKKE
B8: traf2_out_14_149_1263 (protein)
chain: DRVKAKLDEILALLEEVVAAARRAAAEGTPEAREALFALIREAAERIEELGKELGYSFSVVFVLEDLAARRDLPLEEVLARLEAALARAKDTAEVLKERA
B9: traf2_out_20_3_2075 (protein)
chain: EELEKELEKRLKEAIKLLKEAAKKADKETAKKLKKLIKELKESEKLSISDRLVAISKVRREVLKLAEEAEAAGKEELAKLLEEAADELNKAAQLAYKILE
B10: traf2_out_16_171_1443 (protein)
chain: AAAEREAALRAEIDAEAQRLLDRMDTMVEMTPLISKETGLSVEQIAAGFRSAMEDRIAAFEAHFTALAADASPEVRAHLAEALARIRAHLDAAIAEILAK
B11: traf2_out_20_3_2267 (protein)
chain: EELEKKYEEYLEKAKKILEELMKKSDEETKEKLKEALKLLEESKKVSPTDALVLLGEAKRIVRELREEALRAGNEELAKLLDEAADEINKAMNYLLKIIE
B12: traf2_out_11_155_704 (protein)
chain: EKKKELQNKLVDEMIKIEDKLKAEVRAIIAAAAAAHPEHAAELAAVVAASAPFSGTSFARVAAAKFRELGLEEEAAQIEELLEKAQKEKNKIYKEIEKKM
B13: traf2_out_19_16_1972 (protein)
chain: KEEELERIEKRLEEIEKRVEELEKYFEENEETLTREELSDLLVETSELKREAQRLKEELEKLEDYDPERVERLKKRAEEIIERAQRLANRIVDKYLELLK
B14: traf2_out_14_149_1248 (protein)
chain: AAEAELLRKAAELNEFIAKKLEEILKLLKEGKYEEAKKLLKKAIEEAKKLGEKLGVSTSQIFEMEELLELLDKNKEEAKKYAERLLKKARDAAEVLRSIA
B15: traf2_out_11_169_845 (protein)
chain: AEAEKNRKINDKALELNDKAKAELEKYVLELAKEEGLDVEAVKAIFEKNKNKSLSAVAAALIEYFKSLGKEDAAKAVLEKYEELKEEINKEMSAFLKELE
B16: traf2_out_17_178_1676 (protein)
chain: TKEEKRKKISELTDKYIDLAEATAARLLALAEAEGFMTPEELAALRAAQRRGNGRLVEALLERAIPRSPRAAEVAALLADYRARSRELAKEIAKALEEYE
B17: traf2_out_19_16_1977 (protein)
chain: KKEELEKLKKELEEIKKRVKELKKYFEENKDKLTREELSDLLVETSELKREALEIKQKLEELKDYDKEEVEKLIKEAEEVIKEAQRLMNKLVDRYLSLLK
B18: traf2_out_20_3_2191 (protein)
chain: SELEKKLEEELEKAIELLKKAAKLADPETAKKIEELIKRIKESRKLSYEDRLVVLSEVRREVLLLAEEAKKEGKEELAKVLEKAADALNRAMNILMKIIE
B19: traf2_out_17_162_1517 (protein)
chain: SALEEELKKLKEELEKLKKKLKELKEKLEKLKEMSKEELTDLLVEASEARREALELAERLRELKPEIGEEEAEKLIEEAEKIAEELNKIANKIYKELEKK
B20: traf2_out_18_167_1824 (protein)
chain: EEELKKRIEELTDELVRLSEVRRTARAALEAAATDPAAVPAALAATIAALRKVPEFRAAADRLEAAPEADLPALLEEVAAEAQRRANEVYKEREEALKKL
B21: traf2_out_11_155_725 (protein)
chain: DAAREAQNRIVDHNLEVGDRLLATVDAVIAAVAARDPAVAAALRATVARHRRFSATSAARAAIDLLRAAGLDAEAAALEAALAAAQREKSEFIKEVEAEL
B22: traf2_out_18_167_1883 (protein)
chain: EEELRRELEEATDRLVELSEIRRHLLLILEALEESREAARAALEAALAENPDSAVLKEAAEVFATKSDEEFRAFLEAKAEELQREANEAYERIEELRKLL
B23: traf2_out_18_167_1837 (protein)
chain: EEEIRKRREELSDRLVELSALKREARRALHALDTDPSRVPEELAALEREAAKIPELAPLVAAARAALAAGDRAALRAELERLIEEANRLANEVLEEYEKL
B24: traf2_out_5_189_2323 (protein)
chain: SEKEKENEELRERAKRLSKRVNELIAEAEAAGLSLEELRERLLEEIEKLPIEDAELYSGIAYSILEGTALANGDEELLAAARELRKEARAIIAKRRAEAA
B25: traf2_out_17_178_1724 (protein)
chain: TKEEWRKKISELTDEMIDLSEEAATKLLELAEAEGTLTPEELAALREARRRGSPNDTLALGERIAPKLKSQEEANKLIEEFKKKYRELAKKIAEAYKKYE
B26: traf2_out_5_63_2350 (protein)
chain: SERDELTALAREADALVRAMLAARAAGDEERLEALLEAAVADPELARTALGILRGEARYYKLLGDRPEEAAAAAELAARLEARLAERAAAEAAAAAAAAA
B27: traf2_out_13_95_1052 (protein)
chain: SKETAEKIMEVADRAEERALALLEAAQARFADDPEAAAVLDEALRLARTRGISEAIHLLEEAQAADPAHAAEFAALIAELEAIRREAGREVAKILKEEEE
B28: traf2_out_20_38_2007 (protein)
chain: SEEEEEKKREEELIKKAQEAYDEAEARIAAMKAAGKSVAEIAAETKKEVTELLTAAGLEEEAKELVEDVDIAEKSPNAERLLVRILARAKTLVYQKELNK
B29: traf2_out_13_95_1227 (protein)
chain: SAETNEKLRQVSNDMLDRAEAVLDALEARLAPHPAVQPDMAAVRRALREQGIRAAIAQLRAAAKRHPAVAADLEAAAAELEAIRREAGRRVAEILKEEEE

Biological target: T1, TRAF2, Q12933
Experiment: median log2 fold change of GCK-ALFA target abundance (FLAG IP / Myc IP barcode read proportion) (log2 ratio); each designed protein is fused to an ALFA-tag nanobody in HEK293 cells to bring the named protein to FLAG-tagged glucokinase (GCK); Myc marks an untargeted standard; higher = target protein stabilised (more abundant)
Conditions: target protein: 3xFLAG-MCP-GCK-ALFA reporter; HEK293 landing pad (RPLP)
Procedure, shortened: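 An ALFA-nanobody-fused binder library was recombined into HEK293 landing-pad cells and induced with 2 μg mL^−1 doxycycline. Cells were transfected with a plasmid expressing a FLAG-tagged target and a Myc-tagged standard. After 48 h, lysates underwent anti-FLAG and anti-Myc immunoprecipitation, and circular RNA barcodes were reverse transcribed, amplified and sequenced. Target abundance is the per-binder median log2 ratio of FLAG to Myc barcode read proportions. Barcodes needed ≥10^−7 proportion in both replicates, binders ≥3 barcodes per replicate, and a 10^−6 pseudocount was added; the two replicates were pooled.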

Row | Binder | median log2 fold change
1 | B1 | 0.0887
2 | B2 | 0.302
3 | B3 | 0.302
4 | B4 | 0.0662
5 | B5 | 0.0387
6 | B6 | 0.673
7 | B7 | -0.0291
8 | B8 | 0.166
9 | B9 | 0.208
10 | B10 | -0.0454
11 | B11 | 0.634
12 | B12 | 0.154
13 | B13 | -0.00565
14 | B14 | 0.0696
15 | B15 | 0.112
16 | B16 | -0.865
17 | B17 | -0.295
18 | B18 | -0.102
19 | B19 | 0.344
20 | B20 | 0.338
21 | B21 | -0.0792
22 | B22 | 0.266
23 | B23 | 0.152
24 | B24 | 0.101
25 | B25 | -0.000782
26 | B26 | -0.369
27 | B27 | 0.114
28 | B28 | 0.511
29 | B29 | 0.139
